Data published in the supplement of paper PMC3334620.
Whole data set: some 33,000 sequences, median “E-score (-0.5 to 0.5)” near -0.054, cut for the highest 2% near 0.35. The list shows a part of the results.

These sequences were tested against T1, Stb5 (UniProt P38699) (assay: PBM E-score (8-mer binding enrichment) (E-score (-0.5 to 0.5)); higher = stronger / more preferred TF binding; most listed sequences are background and not binding sites). Settings: protein concentration: 200 nM; construct: GST-full length.
T1 sequence: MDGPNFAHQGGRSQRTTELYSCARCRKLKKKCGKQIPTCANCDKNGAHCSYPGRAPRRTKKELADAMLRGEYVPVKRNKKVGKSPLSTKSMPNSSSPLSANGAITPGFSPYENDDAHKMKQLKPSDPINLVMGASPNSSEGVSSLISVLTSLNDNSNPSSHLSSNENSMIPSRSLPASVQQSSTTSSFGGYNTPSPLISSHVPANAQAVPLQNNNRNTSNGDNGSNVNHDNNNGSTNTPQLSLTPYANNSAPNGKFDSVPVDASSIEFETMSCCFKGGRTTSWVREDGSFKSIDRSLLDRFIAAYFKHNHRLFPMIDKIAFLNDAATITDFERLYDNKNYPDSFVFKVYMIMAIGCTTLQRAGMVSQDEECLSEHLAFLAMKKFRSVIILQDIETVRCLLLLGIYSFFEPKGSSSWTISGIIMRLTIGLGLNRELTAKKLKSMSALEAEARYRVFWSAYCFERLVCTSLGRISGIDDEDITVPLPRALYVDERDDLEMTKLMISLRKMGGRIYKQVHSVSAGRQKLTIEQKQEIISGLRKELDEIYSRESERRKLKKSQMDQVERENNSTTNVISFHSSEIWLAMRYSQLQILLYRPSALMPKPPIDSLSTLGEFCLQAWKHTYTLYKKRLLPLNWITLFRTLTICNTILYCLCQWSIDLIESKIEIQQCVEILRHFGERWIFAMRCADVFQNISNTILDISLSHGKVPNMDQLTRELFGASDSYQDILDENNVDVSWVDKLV
In short: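 Each ungapped eight-base word and its reverse complement, pooled, received an E-score from the Universal PBM Analysis Suite. Underlying scans, normalised with masliner, recorded fluorescent anti-GST bound to GST-tagged yeast transcription factors. These were applied at about 100-200 nM to universal all-10-mer Agilent arrays double-stranded by primer extension.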

Sequence	PBM E-score
CACCGCTC	0.402
ATAAGGGC	0.0814
ATCACCAC	0.0837
AGGCAAAC	-0.233
ACTTAGCG	-0.0431
CCGGCACG	0.256
GGGTCCCA	-0.0448
CTCGAGGC	-0.269
AAAGCTAG	-0.283
CGGCTAAG	0.0183
ACGAAAAA	-0.264
CCTCTATA	-0.232
CCCCGCAG	0.312
CGCGCGTC	0.179
CGCAGCGA	0.0248
ATATGAGG	-0.196
ATTGTCGC	-0.0867
GAAACGGA	0.193
GGCCACAA	-0.0969
CGAAGCCC	0.12
AAGCAGTG	-0.121
CGCAGGCC	0.0318
CGTGTAGA	-0.0723
CACGTCAC	-0.17
GGGATCCA	0.117

Sequence	PBM E-score
ATATAACG	0.00457
CGTACGGC	0.117
CAATATAA	0.162
TGCGAGCA	-0.252
ATTGAACA	-9e-05
ATACCCAG	-0.178
CCCGAGAA	0.0753
AGGTGACG	0.0193
AAGAGTCG	0.0514
ACGGCTAG	-0.0329
GGTGACTA	0.172
AACCCATT	-0.119
CCTGATGC	-0.0323
ACTGTATG	-0.0542
CGGCCAGA	0.144
CTGAACAA	-0.0474
CTTAGATC	-0.0824
CGAAATCG	0.239
AAGGGTAA	-0.263
CCAGAGGA	-0.201
AAATCAGG	-0.198
ACACGAGG	-0.192
CCGAACGC	0.217
GATGGTCA	-0.0843
TGCAAGAA	-0.135

Sequence	PBM E-score
CCTCCGAG	0.0853
GGATCGGA	0.307
GAATGGAA	-0.19
ACTGCTCC	-0.124
AGTCGGGC	0.312
GGAGCTGA	-0.109
CTTCCTCC	-0.109
AGGTTCAG	-0.0998
CTTAAAAA	-0.0655
AACGCGTG	-0.227
CTAAGCTA	-0.0687
AAGTCACC	-0.00044
AGAATTAT	0.142
ACAGCTGA	-0.202
ACGTCGGA	0.264
CGCTCCCG	0.0407
CTGTGCCA	-0.142
CATGGACG	-0.0383
CGCGCCGC	0.325
ACCAACCC	-0.0884
GAAACGAC	-0.0671
ACCCCGTA	0.301
AAAAAAAC	0.0636
ACCTAACA	0.0355
CAAGGACG	-0.113

Sequence	PBM E-score
ACTTGAGG	-0.169
GCTGCACA	-0.0762
AGACAGTG	-0.232
AGAATTCT	0.0541
CCTGTCGC	-0.0563
ATGTCTGG	-0.188
AGGGAATG	-0.156
AGACTTTA	-0.0944
AGCACAGA	-0.0721
GAAATCTA	-0.067
GAATAGCA	-0.0815
GTAGTTTA	0.0145
CCTTTTTC	-0.0307
CTTGAGGC	-0.0475
AACAGTAC	-0.17
ACGCTGGC	-0.0211
AAGTACGC	0.007
TTATGCAA	-0.166
ATTGTACA	-0.108
ACTGAACG	-0.162
GTGACAGA	-0.0308
CGCCGGCA	0.354
CAAAGGCC	0.272
ACGGGCCA	0.169
GACTGTGC	-0.163

Sequence	PBM E-score
CCCCTGCG	-0.0518
CCGACCCA	0.369
AGCCTTTC	-0.189
GAAGTCAA	-0.164
ATTCAACA	-0.0155
AATCCTTA	-0.199
CCTTTAAC	0.0973
CCCCCCCG	-0.255
ATTCGCGA	-0.117
ATAGTCAT	-0.164
AAAAGCCT	-0.122
CAGATATA	-0.0791
CACGCTCC	-0.00495
CGAATCCG	-0.0225
ACACAAAG	-0.28
CCGCACAC	0.247
CAAATCAA	-0.174
CAAGTATG	-0.101
TCGAGCGA	-0.179
CCTGATTA	-0.0802
AGATCGGA	0.335
ACAGTACA	-0.171
AATTGTCC	0.188
CCCGGGCC	0.253
ATGTGGCG	0.211

Sequence	PBM E-score
GTGTATAA	-0.0512
GCCCTCGC	0.0349
CCGACTGA	0.248
AATAGGGT	-0.175
CCGACGCC	0.315
CACACTCA	-0.265
AGCCTCCC	-0.141
ATACACTA	-0.0907
TAAGCACA	-0.0336
GTGAGGGA	-0.0417
CGGGTCCC	-0.0158
GTCCTCAA	-0.137
AATTCTGA	-0.0372
GACGCGGA	0.0671
CAACGTCG	0.038
ATCCCATG	-0.0545
ATGTGCTC	-0.151
CTCAAGGC	-0.114
ATACACTC	-0.0497
ATCCAGCA	-0.0774
GCGTATAC	-0.0651
GGTCAGCA	0.0432
CCGCATAC	0.202
CGTTGTAC	-0.041
AGGAGAAC	-0.164

Sequence	PBM E-score
ATGGAGTA	-0.0604
AGTTATAA	0.134
ATGTCGTG	-0.0651
CGCATGTA	0.158
CGTACAAG	-0.0216
CTAATTCA	-0.111
ACTGTTAC	-0.163
AAGCTCGA	-0.18
ATGTCTGA	-0.236
CAGTGAAA	-0.0205
ACCAAGCA	-0.0711
ACAGCCGG	0.2
CATATTAA	-0.0448
CCATTTTC	-0.0355
AGTTATGC	0.0315
ACAGCACC	0.202
ACCGCCTA	0.206
GGTTTGGA	0.0254
ATCGCATA	0.0573
GAAAACCA	-0.0411
ATGGGATA	-0.124
ATCCAAAT	-0.103
